Laboratory results from PubChem BioAssay AID1347165 (National Center for Advancing Translational Sciences (NCATS), 2019).
Several values for one entry are separate records, joined by “and”; a condition that tells them apart may be missing. Identical values can stand only once. In all, about 220,000 compounds went through this assay and about 5,700 (2.6%) were called active. The shares of active, inactive and inconclusive entries below differ from those in the screen. Calls follow the shape of the dose curve; as a rule, active = well fitted inhibition curve with a large enough effect; inconclusive = small, poorly fitted or top-dose-only effect; inactive = no such curve, though single readings can be large or run the other way. A potency beside an inconclusive call is a rough fit, not a confirmed value.

The compounds below were run against Lysine-specific demethylase 5B (Homo sapiens) (UniProt Q9UGL1) (assay: Primary screen for KDM5B Histone Demethylases FDH-coupled qHTS). Settings: FDH-coupled NADH fluorescence (FDH is formaldehyde dehydrogenase); activity change, negative = inhibition: at 57.7 µM (top of the series) unless noted.
Sequence of UniProt Q9UGL1 (Q9UGL1 whole entry, looked up): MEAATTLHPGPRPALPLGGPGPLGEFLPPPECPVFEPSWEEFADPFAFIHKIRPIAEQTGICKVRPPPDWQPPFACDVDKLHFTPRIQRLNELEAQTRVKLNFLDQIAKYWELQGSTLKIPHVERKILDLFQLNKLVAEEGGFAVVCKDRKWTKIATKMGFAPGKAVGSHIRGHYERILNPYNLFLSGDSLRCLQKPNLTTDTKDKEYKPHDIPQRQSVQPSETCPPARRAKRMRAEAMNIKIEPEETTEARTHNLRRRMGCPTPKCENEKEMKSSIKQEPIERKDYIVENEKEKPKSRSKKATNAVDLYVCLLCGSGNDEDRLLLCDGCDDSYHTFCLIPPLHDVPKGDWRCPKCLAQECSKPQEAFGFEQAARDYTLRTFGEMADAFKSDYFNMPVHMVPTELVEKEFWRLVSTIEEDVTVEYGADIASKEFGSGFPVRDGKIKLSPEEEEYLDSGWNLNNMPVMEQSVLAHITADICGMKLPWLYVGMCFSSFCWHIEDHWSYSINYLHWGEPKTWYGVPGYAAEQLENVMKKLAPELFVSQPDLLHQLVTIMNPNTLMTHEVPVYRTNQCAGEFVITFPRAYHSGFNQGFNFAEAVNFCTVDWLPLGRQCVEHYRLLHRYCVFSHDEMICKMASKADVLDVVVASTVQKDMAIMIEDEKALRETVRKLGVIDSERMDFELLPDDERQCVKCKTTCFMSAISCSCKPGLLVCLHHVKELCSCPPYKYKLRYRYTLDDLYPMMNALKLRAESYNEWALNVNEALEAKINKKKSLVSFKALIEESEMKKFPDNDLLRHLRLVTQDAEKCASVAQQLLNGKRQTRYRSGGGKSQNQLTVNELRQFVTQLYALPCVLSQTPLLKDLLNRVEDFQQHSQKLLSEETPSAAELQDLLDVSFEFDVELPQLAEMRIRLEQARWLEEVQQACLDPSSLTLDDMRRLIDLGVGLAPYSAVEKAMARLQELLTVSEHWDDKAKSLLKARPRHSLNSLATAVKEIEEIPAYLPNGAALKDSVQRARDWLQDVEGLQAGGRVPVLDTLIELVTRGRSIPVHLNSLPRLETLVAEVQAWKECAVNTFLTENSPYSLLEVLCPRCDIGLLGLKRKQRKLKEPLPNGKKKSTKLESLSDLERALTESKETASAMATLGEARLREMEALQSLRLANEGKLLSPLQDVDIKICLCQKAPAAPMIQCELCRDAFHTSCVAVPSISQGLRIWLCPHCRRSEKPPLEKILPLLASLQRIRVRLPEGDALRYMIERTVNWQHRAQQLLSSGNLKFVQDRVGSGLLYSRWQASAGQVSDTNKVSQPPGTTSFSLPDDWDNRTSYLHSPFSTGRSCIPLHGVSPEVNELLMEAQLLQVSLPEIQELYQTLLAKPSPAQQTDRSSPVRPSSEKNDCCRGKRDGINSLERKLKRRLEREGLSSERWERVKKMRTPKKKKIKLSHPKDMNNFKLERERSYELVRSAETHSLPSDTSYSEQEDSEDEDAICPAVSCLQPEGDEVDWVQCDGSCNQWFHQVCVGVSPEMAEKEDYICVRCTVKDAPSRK
Summary of the method: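 qHTS format, multiple compound concentrations. Buffer 50 mM HEPES pH 7.5/0.01% Tween-20; 200 nM KDM5BΔAP final; 10 min compound preincubation; substrate-mix levels 12.5 µM peptide, 25 µM α-KG, 0.25 mM NAD⁺; 30 min RT; ΔRFU.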
Also: nearly all actives have a fitted effect of over 70% in size.
For activity change, negative = inhibition in this document: 0% is about no effect.
Potency is read from the fitted curve at half-maximal effect; tags tell the direction and shape of the fitted curve.

**Q.** For `O=C(c1ccncc1)N1CCC(CCOc2ccccc2)C1` (centres undefined), which “activity change, negative = inhibition” value is on record?
**A.** inactive: 27.7%

**Q.** Which “activity change, negative = inhibition” value does the source give for `CC(C)OC(=O)CSc1nc2c(c(=O)[nH]c(=O)n2C)n1C` here?
**A.** inactive: -9.19%

**Q.** `CCc1noc(-c2ccn3c(CNC(=O)c4ccc(F)c(Cl)c4)nnc3c2)n1` was tested. Which Potency did it give?
**A.** inconclusive: 1 µM [inhibitor, full curve, poor fit]

**Q.** `CCc1cccc(NC(=O)C2CCc3ncc(-c4ccsc4)n3C2)c1` (centres undefined) was tested. Which “activity change, negative = inhibition” value did it give?
**A.** inactive: 2.47%

**Q.** Which Potency does the source give for `COc1ccc(OC)c(CNc2sc3c(c2C(=O)Nc2cc(OC)ccc2OC)CCCC3)c1` here?
**A.** inconclusive: 17.8 µM [inhibitor, partial curve, poor fit]

**Q.** With `CCCOc1ccc(C(=O)Nc2ccc3oc(=O)ccc3c2)cc1` as the compound, how does the Potency read?
**A.** inconclusive: 25.1 µM [inhibitor, partial curve, poor fit]

**Q.** How did the Potency turn out when `CCn1ncc(NC(=O)Cn2ncc3cc(-c4cccc(F)c4F)ccc32)n1` was run?
**A.** inconclusive: 39.8 µM [inhibitor, single point]

**Q.** Which “activity change, negative = inhibition” value does the source give for `COc1ccc(-c2noc([C@@H]3Cc4nc[nH]c4CN3C(=O)c3ccc(F)cc3)n2)cc1` here?
**A.** inactive: -34.3% [at 86.2 µM]

**Q.** Which “activity change, negative = inhibition” value does the source give for `Clc1ccc(-c2csc(NC3CC3)n2)cc1` here?
**A.** inactive: -4.28%

**Q.** Which “activity change, negative = inhibition” value does the source give for `COc1ccc(NC(=O)Cn2c(C(=O)c3ccc(Cl)cc3)nc3ccccc32)c(OC)c1` here?
**A.** inactive: 17.7%

**Q.** Which Potency does the source give for `CCN1CCCC1CNC(=O)c1cc2cc(OC)c(OC)cc2[nH]1` (centres undefined) here?
**A.** inconclusive: 20 µM [inhibitor, partial curve, poor fit]

**Q.** `O=c1c2c(nc3cc(-c4ccccc4)[nH]n13)CN(S(=O)(=O)c1cccs1)CC2` was tested. Which “activity change, negative = inhibition” value did it give?
**A.** inactive: -14%

**Q.** `O=C1CN(C(=O)C2CCN(c3nc(-c4ccccc4)nc4c3CCC4)CC2)CCN1` was tested. Which Potency did it give?
**A.** inconclusive: 12.6 µM [inhibitor, partial curve, poor fit]

**Q.** `CC(NC(=O)C(C)NC(=O)CNC(=O)OCc1ccccc1)C(=O)O` (centres undefined) was tested. Which “activity change, negative = inhibition” value did it give?
**A.** inactive: 21.7%

**Q.** For `CN(C)CCNC(=O)c1nc2nc(-c3ccccc3)c(-c3cccc(Cl)c3)cc2n1C`, which “activity change, negative = inhibition” value is on record?
**A.** inactive: -5920% [at 86.2 µM]

**Q.** How did the Potency turn out when `COCc1ccc2c(c1)c(OC(C)(C)C(=O)N1CCOCC1)nn2Cc1cccc(OC)c1` was run?
**A.** inconclusive: 31.6 µM [inhibitor, partial curve]

**Q.** How did the “activity change, negative = inhibition” value turn out when `Cc1ccc(C(C)(C)c2ccc(C(=O)O)cc2)cc1C` was run?
**A.** inactive: 12%

**Q.** With `Cc1[nH]c2ccccc2c1C(C(=O)O)N1CCN(Cc2cccc3ccccc23)CC1` (centres undefined) as the compound, how does the Potency read?
**A.** inconclusive: 39.8 µM [inhibitor, single point]

**Q.** How did the “activity change, negative = inhibition” value turn out when `COc1ccc(CCC(=O)NCCC2CCN(C(=O)Nc3cc(F)cc(F)c3)CC2)cc1` was run?
**A.** inactive: -11.1%

**Q.** Which Potency does the source give for `Cc1cccc(/C=N/NC(=O)CCc2ccccc2)c1` here?
**A.** inconclusive: 39.8 µM [inhibitor, single point]

**Q.** With `Cc1nn(C(=O)CCCC(=O)N2CCC(Cc3nncn3CC3CC3)CC2)c2ccccc12` as the compound, how does the “activity change, negative = inhibition” value read?
**A.** inactive: 2.76%

**Q.** How did the “activity change, negative = inhibition” value turn out when `O=C(NC1CCCCC1)C1CCN(C2=NS(=O)(=O)c3ccccc32)CC1` was run?
**A.** inactive: -3.84%

**Q.** Which Potency does the source give for `Cc1ccc(N2CCN(C(=S)c3ccc(-c4ccccc4[N+](=O)[O-])o3)CC2)cc1` here?
**A.** inconclusive: 11.2 µM [inhibitor, partial curve, poor fit]

**Q.** How did the Potency turn out when `Cc1cccc(C(=O)C(Cl)C(=O)c2cccc(C)c2)c1` was run?
**A.** inconclusive: 39.8 µM [inhibitor, single point]

**Q.** For `CCC(C(=O)N1CCCN(c2cc(-c3ccc(OC)cc3)[nH]n2)CC1)c1ccccc1` (centres undefined), which Potency is on record?
**A.** inconclusive: 14.1 µM [inhibitor, partial curve, poor fit]

**Q.** How did the “activity change, negative = inhibition” value turn out when `Cc1cccn2cc(CSc3ncc(C(F)(F)F)cc3Cl)nc12` was run?
**A.** inactive: 23.5%

**Q.** With `N#CCSc1sc(=S)sc1SCC#N` as the compound, how does the Potency read?
**A.** inconclusive: 39.8 µM [inhibitor, single point]

**Q.** With `O=C(NCc1ccccc1Cl)c1ccc(NC(=O)N2CCSc3ncccc32)cc1` as the compound, how does the Potency read?
**A.** inconclusive: 31.6 µM [inhibitor, partial curve, poor fit]

**Q.** `CCCC(=O)N1C[C@@H]2CCCN3CCC[C@@H]([C@H]23)[C@H]1CCCC(=O)NCC1CC1` was tested. Which Potency did it give?
**A.** inconclusive: 31.6 µM [inhibitor, partial curve, poor fit]

**Q.** With `CCCCCCc1cc2c(-c3ccccc3)cc(=O)oc2cc1O` as the compound, how does the Potency read?
**A.** inconclusive: 25.1 µM [inhibitor, single point]

**Q.** For `Cc1ncccc1C(=O)N1CC[C@@H]2COCCN(Cc3ccncc3)[C@@H]2C1`, which Potency is on record?
**A.** inconclusive: 17.8 µM [inhibitor, partial curve, poor fit]

**Q.** Which Potency does the source give for `Cc1ccc(NC(=O)c2oc3ccc(S(=O)(=O)N4CCC5(CC4)OCCO5)cc3c2C)c(C)c1` here?
**A.** inconclusive: 14.1 µM [inhibitor, partial curve, poor fit]

**Q.** For `Cc1ccc(SCC(=O)NC(C)(C#N)C2CC2)cc1C` (centres undefined), which “activity change, negative = inhibition” value is on record?
**A.** inactive: 21.9%

**Q.** How did the “activity change, negative = inhibition” value turn out when `COc1ccc(-c2coc3cc(OCC(=O)N4CCC(=O)CC4)ccc3c2=O)cc1` was run?
**A.** inactive: 17.3%

**Q.** For `O=C(C1CCCO1)N1CCc2[nH]nc(C(c3ccccc3)c3ccccc3)c2C1` (centres undefined), which “activity change, negative = inhibition” value is on record?
**A.** inactive: -13.4%

**Q.** Which Potency does the source give for `O=C(O)c1ccc2c(c1)n(Cc1cccc(F)c1)c(=O)c1ccnn12` here?
**A.** active: 28.2 µM

**Q.** Which Potency does the source give for `COc1cc(/C=N/NC(=O)c2sc3nc(C)cc(C)c3c2N)ccc1O` here?
**A.** inconclusive: 39.8 µM [inhibitor, single point]

**Q.** For `c1cc2nc(-c3ccsc3)[nH]c2cn1`, which Potency is on record?
**A.** inconclusive: 126 µM [inhibitor, partial curve] and inconclusive: 31.6 µM [inhibitor, single point]

**Q.** `O=C(O)c1ccc2cc(-c3ccccc3)[nH]c2c1` was tested. Which Potency did it give?
**A.** inconclusive: 28.2 µM [inhibitor, partial curve, poor fit]

**Q.** With `O=C(c1ccsc1)N1CCC2(CC1)N=C(c1ccc(Cl)cc1)NO2` as the compound, how does the Potency read?
**A.** inconclusive: 31.6 µM [inhibitor, partial curve, poor fit]

**Q.** With `Cn1cc(-c2cccc(CO)c2)c2nc(CNc3ccccc3)cn2c1=O` as the compound, how does the Potency read?
**A.** inconclusive: 28.2 µM [inhibitor, partial curve]

**Q.** `COCC(=O)Nc1ccc(-c2c(-c3cccc(OC)c3)nn(-c3ccccc3)c2OC(C)=O)cc1` was tested. Which Potency did it give?
**A.** active: 28.2 µM

**Q.** `CCC1CCCCN1C(=O)c1ccc(-c2nnc3ccc(NC(=O)C4CCC4)cn23)cc1` (centres undefined) was tested. Which Potency did it give?
**A.** inconclusive: 22.4 µM [inhibitor, partial curve, poor fit]

**Q.** For `COc1ccc(OC)c(CN2CCc3nc(N4CCN(c5ccccc5F)CC4)ncc3C2)c1`, which “activity change, negative = inhibition” value is on record?
**A.** inactive: 1.81%

**Q.** Which Potency does the source give for `COc1cccc(NC(=O)Cn2c(N3CCc4ccccc4C3)nc(C)cc2=O)c1` here?
**A.** active: 11.2 µM

**Q.** Which “activity change, negative = inhibition” value does the source give for `Nn1c(SCc2cccc(S(=O)(=O)N3CCOCC3)c2)nnc1-c1cccc(Cl)c1` here?
**A.** inactive: -0.385%

**Q.** Which Potency does the source give for `Cc1ccc(C(=O)N2CCC3(CC2)NCCc2c3[nH]c3ccccc23)cn1` here?
**A.** inconclusive: 22.4 µM [inhibitor, partial curve, poor fit]

**Q.** With `Cc1ccc2nsnc2c1NC(=O)c1ccc(Cl)cc1Cl` as the compound, how does the “activity change, negative = inhibition” value read?
**A.** inactive: 5.98%

**Q.** Which Potency does the source give for `CSc1cccc(NC(=O)C2CCN(S(=O)(=O)c3ccc4[nH]c5c(c4c3)CCCCC5)CC2)c1` here?
**A.** inconclusive: 28.2 µM [inhibitor, partial curve, poor fit]

**Q.** For `Cc1ccc(NC(=O)C2CCCN(S(=O)(=O)c3c(C)n[nH]c3C)C2)cc1C` (centres undefined), which “activity change, negative = inhibition” value is on record?
**A.** inactive: 3.96%

**Q.** How did the Potency turn out when `O=C(c1ccccc1F)N1CCn2c(nnc2C2CCNCC2)C1` was run?
**A.** inconclusive: 56.2 µM [inhibitor, partial curve]

**Q.** With `COc1ccc([C@@H]2CC(=O)C3=C(C2)Nc2[nH][nH]c(=O)c2[C@H]3c2cccc(Br)c2)cc1OC` as the compound, how does the “activity change, negative = inhibition” value read?
**A.** inactive: -23.5%

**Q.** With `O=C(c1cc(Cl)cc(Cl)c1)N1CCN(C(=O)c2cc(Cl)ccc2F)CC1` as the compound, how does the “activity change, negative = inhibition” value read?
**A.** inactive: 24%

**Q.** With `Cc1cccc(OCC(=O)NCc2nnc3c(-c4nc(C(C)C)no4)cccn23)c1` as the compound, how does the Potency read?
**A.** inconclusive: 25.1 µM [inhibitor, single point]

**Q.** Which “activity change, negative = inhibition” value does the source give for `COc1ccccc1C(=O)N1CCc2nc(C3CC3)nc(-c3ccc(Cl)cc3)c2C1` here?
**A.** inactive: -2.41% [at 115 µM]

**Q.** Which Potency does the source give for `COc1cccc(C2CC(=O)Nc3c2c(=O)[nH]c2nc4ccccc4n32)c1OC` (centres undefined) here?
**A.** inconclusive: 20 µM [inhibitor, partial curve, poor fit]

**Q.** Which “activity change, negative = inhibition” value does the source give for `O=C1CC(c2nc(-c3cccs3)no2)CN1c1ccc(F)cc1` (centres undefined) here?
**A.** inactive: 13.3%

**Q.** How did the “activity change, negative = inhibition” value turn out when `CCCCC(CC)CNC(=O)CCC(=O)NC1CCCCCCCCCCC1` (centres undefined) was run?
**A.** inactive: -5.42%

**Q.** Which Potency does the source give for `CC1(C)C(=O)OC(c2ccc(Br)cc2)C2(CCCCC2)C1=O` (centres undefined) here?
**A.** inconclusive: 39.8 µM [inhibitor, single point]

**Q.** How did the Potency turn out when `CCCn1ccnc1CN1CCCn2nc(-c3nc4ccccc4n3C)cc2C1` was run?
**A.** inconclusive: 31.6 µM [inhibitor, partial curve, poor fit]

**Q.** `COc1ccc(C(=O)Nc2ccc(-c3noc([C@@H]4CCCN4Cc4ccc(F)cc4)n3)cn2)cc1` was tested. Which Potency did it give?
**A.** inconclusive: 28.2 µM [inhibitor, partial curve, poor fit]

**Q.** `C=CCNC(=O)N[C@H]1CCN2C(=O)c3ccc(Cl)cc3NC(=O)[C@@H]2C1` was tested. Which Potency did it give?
**A.** inconclusive: 28.2 µM [inhibitor, partial curve]

**Q.** With `COc1ccc(-c2nc(-c3nnn4c3COC(c3ccc(Cl)cc3)C4)no2)c(OC)c1` (centres undefined) as the compound, how does the Potency read?
**A.** inconclusive: 15.8 µM [inhibitor, partial curve, poor fit]

**Q.** How did the Potency turn out when `O=C(NC1CCCC1)c1ccc2nnc(-c3cncc(Cl)c3)n2c1` was run?
**A.** active: 100 µM

**Q.** With `O=C(NCCc1ccccc1F)c1ccncc1` as the compound, how does the “activity change, negative = inhibition” value read?
**A.** inactive: 0.0882%

**Q.** `Cc1cc(C)c(CNC(=O)c2nc(-c3cccc(O)c3)cc3c2ccn3C(C)C)c(=O)[nH]1` was tested. Which Potency did it give?
**A.** inconclusive: 35.5 µM [inhibitor, partial curve, poor fit]

**Q.** For `CCOc1cc(OCC)cc(C(=O)Nc2ccc(Br)c(C)n2)c1`, which “activity change, negative = inhibition” value is on record?
**A.** inactive: -11.7%

**Q.** `O=C(NCC1Cn2cccc2CN1Cc1ccccc1)c1cncc(Br)c1` (centres undefined) was tested. Which Potency did it give?
**A.** active: 28.2 µM

**Q.** With `Cc1ccc(-c2c3c(=O)n(C)c(=O)n(C)c3cn2-c2cc(C)ccc2O)cc1` as the compound, how does the Potency read?
**A.** inconclusive: 35.5 µM [inhibitor, partial curve, poor fit]
